Data set [1] relates to HeLa Kyoto. The data set can be described thus: solubility in G1/S (NP-40 vs SDS abundance) (log2 ratio); higher = more soluble. Particulars: cell cycle stage: G1/S.
The subject of data set [2] is HeLa Kyoto. Briefly: thermal stability score vs G1/S (z-score of summed log2 fold changes over temperatures); higher = more thermally stable than in G1/S.
Data set [3] relates to HeLa Kyoto. Briefly: solubility change mitosis vs G1/S (difference of NP-40 vs SDS log2 ratios) (log2 ratio difference); higher = more soluble in mitosis.
In data set [4] the test system is HeLa Kyoto. Briefly: melting temperature (median over replicates), in situ; higher = more thermally stable.
[5] abbreviates: cell cycle stage: early G1 (4.5 h after nocodazole release).
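Wherever melting temperature (median over replicates), in situ is given: HeLa Kyoto cells synchronized by double thymidine or nocodazole block, proteins quantified by TMT10plex mass spectrometry, three independent biological replicates.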
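Wherever solubility change mitosis vs G1/S (difference of NP-40 vs SDS log2 ratios) is given: synchronized HeLa Kyoto cells (double thymidine block for G1/S, nocodazole release for mitosis), protein amounts in NP-40 versus SDS lysates quantified by mass spectrometry, three biological replicates.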
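Wherever solubility in G1/S (NP-40 vs SDS abundance) is given: HeLa Kyoto cells arrested at G1/S by double thymidine block, proteins quantified by TMT10plex mass spectrometry in mild NP-40 versus SDS extracts, three biological replicates.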
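Wherever thermal stability score vs G1/S (z-score of summed log2 fold changes over temperatures) is given: synchronized HeLa Kyoto cells, proteins quantified by TMT10plex mass spectrometry, three biological replicates, mitosis taken 0.5 h after nocodazole release, G1/S directly after double thymidine block.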

As to COX4I1 (sequence left out), in the data set on HeLa Kyoto [1], the “solubility in G1/S (log2)” value amounted to 0.145. Also, the values for the thermal stability score with HeLa Kyoto [2] (setting [5]) and with HeLa Kyoto [2] (cell cycle stage: mitosis) were -4.41 and -3.88, respectively. For the same substance, the “solubility change mitosis (log2)” value with HeLa Kyoto [3] was 0.0135. The melting temperature amounted to 54.6 °C in the data set with HeLa Kyoto [4] (cell cycle stage: G1/S) and 53.6 °C with HeLa Kyoto [4] (cell cycle stage: mitosis).
On to EIF3E (sequence left out), for which the “solubility in G1/S (log2)” value in the data set on HeLa Kyoto [1] was -0.416. The results for the thermal stability score in the data set with HeLa Kyoto [2] (setting [5]) and with HeLa Kyoto [2] (cell cycle stage: mitosis) were 0.398 and 2.01, respectively. Moreover, the “solubility change mitosis (log2)” value with HeLa Kyoto [3] was -0.114. Moreover, the melting temperature was found to be 49 °C in the data set on HeLa Kyoto [4] (cell cycle stage: G1/S) and 48 °C with HeLa Kyoto [4] (cell cycle stage: mitosis).

The values are drawn from the supplement of paper PMC5998384.
